The other results are listed elsewhere or left out.
These sequences were tested against no compound (DMSO) (assay: log2 fold change of degron read counts, EGFP-low vs EGFP+ sorted cells; higher = lower degron-EGFP level without compound (poor expression or instability)). Conditions: compound: DMSO control; 18 h.
In the case of FDCDQCGATFTQKGNLLRHIKL, the “log2 fold change of degron read counts” value is reported as -2.04.
FNCSVCGHGFTQKGNLLRHIKL was tested, and the “log2 fold change of degron read counts” value was -0.23.
With FACNQCGADFTQKGNLLRHIKL the “log2 fold change of degron read counts” value was -1.4.
With LQCPICGFVCTQKGNLLRHIKL the “log2 fold change of degron read counts” value was 0.771.
For FECDQCGARFTQKGNLLRHIKL, the “log2 fold change of degron read counts” value was -2.62.
For LNCNQCGFSCTQKGNLLRHIKL, the “log2 fold change of degron read counts” value was 0.0907.
FRCPICGRHFTQKGNLLRHIKL was tested, and the “log2 fold change of degron read counts” value was 0.527.
For FRCPICGHKFTQKGNLLRHIKL, the “log2 fold change of degron read counts” value was -0.799.
With FNCNVCGASFTQKGNLLRHIKL the “log2 fold change of degron read counts” value was -0.884.
In the case of FVCEICGHFFTQKGNLLRHIKL, the “log2 fold change of degron read counts” value is reported as -0.482.
With FMCNQCGHIFTQKGNLLRHIKL the “log2 fold change of degron read counts” value was 0.377.
For FSCNQCGRHFTQKGNLLRHIKL, the “log2 fold change of degron read counts” value was -0.175.
For FDCSVCGHYFTQKGNLLRHIKL, the “log2 fold change of degron read counts” value was 1.12.
For FTCNVCGAMFTQKGNLLRHIKL, the “log2 fold change of degron read counts” value was -0.643.
With FMCEICGHWFTQKGNLLRHIKL the “log2 fold change of degron read counts” value was -0.484.
In the case of FYCEVCGATFTQKGNLLRHIKL, the “log2 fold change of degron read counts” value is reported as -0.52.
With FCCDVCGASFTQKGNLLRHIKL the “log2 fold change of degron read counts” value was -1.92.
FVCPQCGAHFTQKGNLLRHIKL was tested, and the “log2 fold change of degron read counts” value was -0.453.
For LICNQCGFICTQKGNLLRHIKL, the “log2 fold change of degron read counts” value was 1.13.
With FHCEICGAKFTQKGNLLRHIKL the “log2 fold change of degron read counts” value was -1.4.
With FMCPQCGATFTQKGNLLRHIKL the “log2 fold change of degron read counts” value was -0.689.
In the case of FRCNQCGHKFTQKGNLLRHIKL, the “log2 fold change of degron read counts” value is reported as 0.163.
LRCEICGFHCTQKGNLLRHIKL was tested, and the “log2 fold change of degron read counts” value was -0.0882.
In the case of FQCPICGHLFTQKGNLLRHIKL, the “log2 fold change of degron read counts” value is reported as -0.016.
In the case of FACEQCGAIFTQKGNLLRHIKL, the “log2 fold change of degron read counts” value is reported as -1.25.
For FWCEVCGAPFTQKGNLLRHIKL, the “log2 fold change of degron read counts” value was -0.117.
For FECPICGREFTQKGNLLRHIKL, the “log2 fold change of degron read counts” value was -1.67.
In the case of LLCPICGFVCTQKGNLLRHIKL, the “log2 fold change of degron read counts” value is reported as 1.46.
With FYCNVCGAVFTQKGNLLRHIKL the “log2 fold change of degron read counts” value was -0.544.
With FGCPICGAGFTQKGNLLRHIKL the “log2 fold change of degron read counts” value was 0.421.
In the case of FLCNICGAFFTQKGNLLRHIKL, the “log2 fold change of degron read counts” value is reported as 0.494.
With FACNICGAMFTQKGNLLRHIKL the “log2 fold change of degron read counts” value was -0.703.

Source: the supplement of paper PMC12645437, “Orthogonal IMiD-Degron Pairs Induce Selective Protein Degradation in Cells” (ACS Chemical Biology, 2025)
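Note: jurkat cells carrying a lentiviral library of mutant zinc finger degrons fused to EGFP plus mCherry, mCherry+ cells FACS sorted, degron abundance counted by next-generation sequencing.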
